B1: OR4K15 (parent)
chain: GUUAACGGUCAUAGGCCAUGGAAACUAGGAGCACCAUUUCGCUGCCAGUGAAGAAAUGAACAAAGAAAAUCUGGGCCAGGCAGGCAUCAAAAGAAAUAGUCUUGCGCUCAACCAGAAAGUCUGUAAUCAUUUUAAGGGUA

Read counts are not given, so values of variants with three or more changes are uncertain.

In the series the parent is B1. The series can be described thus: self-cleavage, relative activity (ratio to wild type); higher = more cleavage; in vitro, sequencing; the parent is a self-cleaving ribozyme.
Consider GUUAACGGCCAUAGGCCAUGGAAGCUAGGAGCACCAUUUCGCUGCCAGUGAAGAAAUGAACAAAGAAAAUCUGGGCCAGGCAGGCAUCAAAAGAAAUAGUCUUGCGCUCGACCAGAAAGUCUGUAAUCAUUUUAAGGGUA [U9C A24G A110G], for which the self-cleavage is 0.11.
On to GUUAACGGCCAUAGGCCAUGGAAACUGGGAGCACCAUUUCGCUGCCAGUGAAGAAAUGAACAAAGAAAGUCUGGGCCAGGCAGGCAUCAAAAGGAAUAGUCUUGCGCCCAACCAGAAAGUCUGUAAUCAUUUUAAGGGUA [U9C A27G A69G A94G U108C], for which the self-cleavage was 0.03.
The same measure for GUUAACGGCCAUAGGCCAUGGAAACUAGGGGCACCAUUUCGCUGCCAGUGAAGAAAUGAACAAAGAAAAUCUGAGCCAGGCAGGCAUCAAAAGAAAUAGUCUUGCGCUCAACCAGAAAGUCUGUAAUCAUUUUAAGGGUA [U9C A30G G74A]: 0.39; for GUUAACGGCCAUAGGCCAUGGAAACUGGGAGCACCAUUUCGCUGCCAGUGAAGAAAUGAACAAAGAGAAUCUGGGCCAGGCAGGCAUCAAAAGAAAUAGUCUUGCGCUCAACCAGAAAGUCUGUAAUCAUUUUAAGGGUA [U9C A27G A67G]: 1.66; for GUUAACGGCCAUAGGCCAUGGAAGCUAGGAGCACCAUUUCGCUGCCAGUGAAGAAAUGAACAAAGAAAAUCCGGGCCAGGCAGGCAUCAAAAGAAAUAGUCUUGCGCUCAACCAGAAAGUCUGUAAUCAUUUUAAGGGUA [U9C A24G U72C]: 0.4.
On to GUUAACGGCCAUAGGCCAUGGAAGCUAGGAGCGCCAUUUCGCUGCCAGUGAAGAAAUGAACAAAGAAAAUCUGGGCCAGGCUGGCAUCAAAAGAAAUAGUCUUGCGCUCAACCAGAAAGUCUGUAAUCAUUUUAAGGGUA [U9C A24G A33G A82U], for which the self-cleavage worked out at 0.21.
The same measure for GUUAACGGCCAUAGGCCAUGGAUACUAGGAGCACCAUUUCGCUGCCAGUGAAGAAAUGAACAAAGAAAAUCUGGGCCAGGCAGGCAUCAAAAGAAAUAGUCUUGCGCUCAACCAGAAAGUCUGUGAUCAUUUUAAGGGUA [U9C A23U A125G]: 0.86; for GUUAACGGCCAUAGGCCAUGGAAUCUGGGAGCACCAUUUCGCUGCCAGUGAAGAAAUGAACAAAGUAAAUCUGGGCCAGGCAGGCAUCAAAAGAAAUAGUCUUGCGCUCAACCAGAAAGUCUGUAAUCAUUUUAAGGGUG [U9C A24U A27G A66U A140G]: 1.59; for GUUAACGGCCAUAGGCCAUGGAAUCUAGGAGCACCAUUUCGCUGCCAGUGAAGAAAUGAACAAAGAAAAUCUGGGCCGGGCAGGCAUCAAUAAAAAAAGUCCUGCGCUCAACCAGAAAGUCUGUAAUCAUUUUAAGGGUA [U9C A24U A78G A91U G93A U97A U102C]: 0.53.
The same measure for GUUAACGGCCAUAGGCCAUGGAAACUAGGGGCACCAUUUCGCUGCCAGUGAAGAAAUGAACAAAGAAAAUCUGGGCCAGGCAGGCAUCAAAAGAAAUAGUCUUGCGCUCAACCAGAGAGUCUGUAAUCAUUUUAAGGGUA [U9C A30G A117G]: 1.97; for GUUAACGGCCAUAGGCCAUGGAAGCUAGGAGCAUCAUUUCGCUGCCAGUGAAGAAAUGAACAAAGAAGAUCUGGCCCAGGCAGGCAUCAAAAGAAAUAGUCUUGCGCUCAACCAGAAAGUCUGUAAUCAUUUUAAGGGUA [U9C A24G C34U A68G G75C]: 0.3.
The figure for GUUAACGGCCAUAGGCCAUGGAAACUGGGAGCACCAUUUCGCUGCCAGCGAAGAAAUGAACAGGGAAAAUCUGGGCCAGGCAGGCAUCAAAAGAAAUAGUCUUGCGCCCAACCAGAAAGUCUGUAAUCGUUUUAAGGGUG [U9C A27G U49C A63G A64G U108C A129G A140G] is 0.01.
Consider GUUAACGGCCAUAGGCCAUGGAAGCUAGGAGCACCAUUUCGCUGCCAGUGAAGUAAUGGACAAAGAAAAUCUGGGCCAGGCAGGCAUCAAAAGAGAUAGUCUUGCGCUCAACCAGAAAGUCUGUAAUCAUUUUAAGGGUA [U9C A24G A54U A59G A95G], for which the self-cleavage amounted to 1.48.
Take GUUAACGGCCAUAGGCCAUGGAAACUGGGAGCACCAUUUCGCUGCCAGUGAAGAAAUGAACAGAGAAAAUCUGGGCCAGGCUGGCAUCAAAAGAAAUAGCCUUGCGCUCGACCAGAAAGUCUGUAAUCAUUUUGAGGGUA [U9C A27G A63G A82U U100C A110G A134G]: the self-cleavage stood at 0.02.
Regarding GUUAACGGCCAUAGGCCAUGGAGACUAGGAGCACCAUUUCGCUGCCAGCGAAGAAAUGAACAAAGAAAAUCUGGGCCAGGCAGGCAUCAAAAGAAAUAGUCCUGCGCUCAACCAGAAAGUCUGUAAUCAUUUUAGGGGUA [U9C A23G U49C U102C A135G], the self-cleavage came to 0.7.
The figure for GUUAACGGCCAUAGGCCAUGGAAUCUAGGAGCACCAUUUCGCUGCCAGUGAAGAAAUGAACAAAGAAAAUCUGGGCCAGGCAGGCAUCAGAAGAAAUAGUCUUGCGCUCAACCAGAAAGUCUGUAAUCAUUUUAAGGGUA [U9C A24U A90G] is 0.42.
With GUUAACGGCCAUAGGCCAUGGAAGCUAGGAGCACCAUCUCGCUGCCAGUGAAGAAAUGAACAAAGAGAAUCUGGGCCAGGCAGGCAUCAAAAGAAGUAGUCUUGCGCUCAACCAGAAAGUCUGUAAUCAUUUUAAGGGUA [U9C A24G U38C A67G A96G], the self-cleavage is 0.89.
On to GUUAACGGCCAUAGGCCAUGGAAGCUAGGAGCACCAUUUCGCUGCCAGUGAAGAAAUGAACAAAGAAAAUCUGGGCCAGGCAGGCAUCAAAAGAAGUAGUCUUGCGCUCAACCAGAAAGUCUGUAAUCAUUUUAAGGGUA [U9C A24G A96G], for which the self-cleavage is 0.76.
The figure for GUUAACGGCCAUAGGCCAUGGAAACUUGGAGCACCAUUUCGCUGCCAGUGAAGAAAUGAACAAAGAAAACCUGAGCCAGGCAGGCAUCAAAAGAAAUAGUCUUGCGCUCAACCAGAAAGUCUGUAAUCAUUUUAAGGGUA [U9C A27U U70C G74A] is 0.43; for GUUAACGGCCAUAGGCCAUGGAAGCUAGGAGCACCAUUUCGCUGCCAGUGAAGAAAUGAACAAAGAAAAUCUGGGCCAGGCAGGCACCAAAAGAAAUAGUCUUGCGCUCAACCAGAAAGGCUGUAAUCAUUUUAAGGGUA [U9C A24G U87C U120G] it is 1.66.
The figure for GUUAACGGCCAUAGGCCAUGGAAACUGGGAGCACCAUUCCGCUGCCAGUGAAGAAAUGAACAAAGAAAAUCUGAGCCAGGCAGGCAUCAAAAGAAAUAGUCUUGCGCUCAACCAGAAAGUCUGUAAUCAUUUUAAGGGUA [U9C A27G U39C G74A] is 0.22.

The values above are taken from the RNAGym collection of RNA variant scans (doi:10.7554/elife.90254).
